Test results: the antibiotic and cytotoxicity screens of Wong et al. (2023)
Some of the results follow.

Test system: HSkMC (human skeletal muscle cells)
Experiment: cytotoxicity call (relative viability < 0.9)
Settings: 10 µM

Q: For `OCc1ccc(O[C@@H]2O[C@H](CO)[C@@H](O)[C@H](O)[C@H]2O)cc1`, which cytotoxicity call is on record?
A: inactive

Q: How did the cytotoxicity call turn out when `C[C@H](CO)N1C[C@H](C)[C@@H](CN(C)C(=O)c2cnccn2)Oc2ncc(/C=C/c3ccccc3)cc2C1=O` was run?
A: inactive

Q: With `NCc1cccc2nsnc12` as the molecule, how does the cytotoxicity call read?
A: inactive

Q: How did the cytotoxicity call turn out when `COc1ccc(CNC(=O)C[C@H]2CC[C@H]3[C@@H](COc4ccc(NC(=O)C5CC5)cc4C(=O)N3C)O2)cc1` was run?
A: inactive

Q: Which cytotoxicity call does the source give for `O=C(C[C@@H]1CC[C@H](NC(=O)CN2CCOCC2)[C@H](CO)O1)NCCc1ccncc1` here?
A: inactive

Q: With `COCC(=O)Nc1ccc2c(c1)OC[C@@H](C)N(Cc1ccccc1F)C[C@@H](C)[C@H](OC)CN(C)C2=O` as the molecule, how does the cytotoxicity call read?
A: inactive

Q: Which cytotoxicity call does the source give for `C[C@@H]1CCCCO[C@@H](CN(C)C(=O)NC2CCCCC2)[C@H](C)CN([C@H](C)CO)C(=O)c2cc(NC(=O)NC3CCCCC3)ccc2O1` here?
A: inactive

Q: Which cytotoxicity call does the source give for `C[C@@H]1CN([C@H](C)CO)C(=O)c2c(c3ccccc3n2C)-c2ccccc2CO[C@@H]1CN(C)Cc1ccc(Oc2ccccc2)cc1` here?
A: inactive

Q: `C[C@H](CO)N1C[C@H](C)[C@@H](CN(C)S(=O)(=O)c2ccc(Cl)cc2)Oc2ccc(NS(C)(=O)=O)cc2C1=O` was tested. Which cytotoxicity call did it give?
A: inactive

Q: With `Cc1noc(C)c1S(=O)(=O)Nc1ccc2c(c1)C(=O)N([C@@H](C)CO)C[C@@H](C)[C@H](CN(C)C(=O)Nc1ccc(C(F)(F)F)cc1)OCCCC[C@H](C)O2` as the molecule, how does the cytotoxicity call read?
A: inactive

Q: With `C=CCOC(=O)N(C)C[C@@H]1OCCCC[C@H](C)Oc2ccc(NC(=O)Nc3ccccc3)cc2C(=O)N([C@H](C)COC(=O)c2ccccc2)C[C@H]1C` as the molecule, how does the cytotoxicity call read?
A: inactive

Q: How did the cytotoxicity call turn out when `C[C@@H]1CN([C@H](C)CO)C(=O)c2c(c3ccccc3n2C)-c2ccccc2CO[C@@H]1CN(C)CC1CCCCC1` was run?
A: inactive

Q: For `COc1ccc(S(=O)(=O)Nc2ccc3c(c2)C(=O)N([C@H](C)CO)C[C@H](C)[C@@H](CN(C)CC2CCCCC2)OCCCC[C@@H](C)O3)cc1`, which cytotoxicity call is on record?
A: inactive

Q: `Nc1ccn([C@@H]2C[C@@H](O)[C@H](CO)O2)c(=O)n1` was tested. Which cytotoxicity call did it give?
A: inactive

Q: `C[C@@H]1CN([C@H](C)CO)C(=O)c2cccc(NS(=O)(=O)c3cccs3)c2O[C@@H]1CN(C)S(=O)(=O)c1cccs1` was tested. Which cytotoxicity call did it give?
A: inactive

Q: For `COc1ccc(-c2cnc3c(c2)C(=O)N([C@H](C)CO)C[C@H](C)[C@H](CN(C)S(=O)(=O)c2ccc(C#N)cc2)O3)cc1`, which cytotoxicity call is on record?
A: inactive

Q: `CCOC(=O)CC1(C)NNC(=S)NN1` was tested. Which cytotoxicity call did it give?
A: inactive

Q: `C[C@@H]1CN([C@@H](C)CO)C(=O)Cc2cc(NC(=O)CCCN(C)C)ccc2O[C@@H]1CN(C)S(=O)(=O)c1ccc(Cl)cc1` was tested. Which cytotoxicity call did it give?
A: inactive

Q: For `O=C(C1=C[C@@H](C2CC2)C[C@@H](OCc2ccc(CO)cc2)O1)N1CCN(Cc2ccc3c(c2)OCO3)CC1`, which cytotoxicity call is on record?
A: inactive

Q: For `COc1ccc(Br)cc1S(=O)(=O)NC(=O)/C=C/c1ccccc1Cc1ccc2ccccc2c1`, which cytotoxicity call is on record?
A: inactive

Q: `C[C@H]1CN([C@@H](C)CO)C(=O)c2cc(C#CC3(O)CCCC3)cnc2O[C@@H]1CN(C)S(=O)(=O)c1ccc(F)cc1` was tested. Which cytotoxicity call did it give?
A: inactive

Q: With `CCCNC(=O)C[C@@H]1CC[C@@H]2[C@@H](COc3ccc(NC(=O)c4ccc5c(c4)OCO5)cc3C(=O)N2C)O1` as the molecule, how does the cytotoxicity call read?
A: inactive

Q: Which cytotoxicity call does the source give for `C[C@@H]1CN([C@@H](C)CO)C(=O)c2cc(NC(=O)CCCN(C)C)ccc2O[C@H]1CN(C)Cc1ccncc1` here?
A: inactive

Q: How did the cytotoxicity call turn out when `CCCCOC(=O)c1ccc(O)cc1` was run?
A: inactive

Q: How did the cytotoxicity call turn out when `C[C@@H]1CN([C@H](C)CO)C(=O)Cc2cc(NC(=O)C3CC3)ccc2O[C@H]1CN(C)C(=O)Nc1ccccc1` was run?
A: inactive

Q: How did the cytotoxicity call turn out when `C[C@@H]1CN([C@H](C)CO)C(=O)Cc2cc(NC(=O)CCC(F)(F)F)ccc2O[C@H]1CN(C)Cc1ccc(Cl)c(Cl)c1` was run?
A: inactive

Q: With `CCOC(=O)/C=C(C)/C=C/C=C(C)/C=C/c1c(C)cc(OC)c(C)c1C` as the molecule, how does the cytotoxicity call read?
A: inactive

Q: Which cytotoxicity call does the source give for `C[C@@H]1CN([C@H](C)CO)C(=O)c2cc(NC(=O)c3ccccc3)ccc2O[C@@H](C)CCCCO[C@@H]1CN(C)Cc1ccc(C(F)(F)F)cc1` here?
A: inactive

Q: Which cytotoxicity call does the source give for `C[C@@H]1CCCCO[C@H](CN(C)Cc2ccc3c(c2)OCO3)[C@@H](C)CN([C@H](C)CO)C(=O)c2cc(NS(=O)(=O)c3ccc(Cl)cc3)ccc2O1` here?
A: inactive

Q: Which cytotoxicity call does the source give for `O=C(CN1CCNCC1)c1ccc(F)cc1` here?
A: inactive

Q: With `CCOC(=O)[C@H](Cc1c[nH]c2ccccc12)NC(=O)Cn1cc(C(=O)NO)nn1` as the molecule, how does the cytotoxicity call read?
A: inactive

Q: Which cytotoxicity call does the source give for `CC1(C)C=Cc2cc3ccc(=O)oc3cc2O1` here?
A: inactive

Q: How did the cytotoxicity call turn out when `C[C@H](CO)N1C[C@H](C)[C@H](CN(C)S(=O)(=O)c2cn(C)cn2)Oc2ccc(NC(=O)CCCN(C)C)cc2CC1=O` was run?
A: inactive

Q: Which cytotoxicity call does the source give for `COc1ccc2c3c(n(c2c1)C)[C@@H](CO)N(C[C@]13CN(C1)S(=O)(=O)c1ccc(cc1)C)S(=O)(=O)c1ccc(cc1)C` here?
A: inactive

Q: With `CN1CCN(C(=O)C[C@@H]2CC[C@H]3[C@@H](COC[C@H](O)CN3C(=O)C3CCOCC3)O2)CC1` as the molecule, how does the cytotoxicity call read?
A: inactive

Q: `Cc1noc(C)c1NC(=O)N[C@@H]1C=C[C@H](CC(=O)NCCCN(C)C)O[C@@H]1CO` was tested. Which cytotoxicity call did it give?
A: inactive

Q: Which cytotoxicity call does the source give for `C[C@@H]1CN([C@@H](C)CO)C(=O)c2cc(NS(=O)(=O)c3ccccc3)ccc2O[C@@H](C)CCCCO[C@@H]1CN(C)S(=O)(=O)c1ccc(Cl)cc1` here?
A: inactive

Q: With `CO[C@@H]1CN(C)C(=O)c2ccc(NS(C)(=O)=O)cc2OC[C@@H](C)N(C(=O)C2CCCCC2)C[C@H]1C` as the molecule, how does the cytotoxicity call read?
A: inactive

Q: Which cytotoxicity call does the source give for `CN(C)CCC(c1ccccc1)c1ccccn1.O=C(O)C=CC(=O)O` (stereo not given) here?
A: inactive

Q: For `Cc1noc(C)c1NC(=O)Nc1ccc2c(c1)CC(=O)N([C@@H](C)CO)C[C@H](C)[C@H](CN(C)Cc1ccc(-c3ccccc3)cc1)O2`, which cytotoxicity call is on record?
A: inactive
